T1: Recombinant Human IL-17 (human, UniProt Q16552 20-155, limits assumed)
T1 sequence (looked up): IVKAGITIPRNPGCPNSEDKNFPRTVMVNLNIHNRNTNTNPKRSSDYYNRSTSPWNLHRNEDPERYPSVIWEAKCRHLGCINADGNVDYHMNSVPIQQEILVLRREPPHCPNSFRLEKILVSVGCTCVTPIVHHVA

B1: DVD2435 (bispecific antibody, human IgG1)
heavy: EVQLQESGPGLVKPSETLSLTCTVSGFSLSDYGVSWIRQPPGKGLEWLGLIWGGGDTYYNSPLKSRLTISKDNSKSQVSLKLSSVTAADTAVYYCAKQRTLWGYDLYGMDYWGQGTLVTVSSASTKGPEVQLVQSGAEVKKPGSSVKVSCKASGGSFGGYGIGWVRQAPGQGLEWMGGITPFFGFADYAQKFQGRVTITADESTTTAYMELSGLTSDDTAVYYCARDPNEFWGGYYSTHDFDSWGQGTTVTVSS[human IgG1 constant region left out]
light: DTVVTQSPAFLSVTPGEKVTITCITSTDIDVDMNWYQQKPDQPPKLLISQGNTLRPGVPSRFSSSGSGTDFTFTISSLEAEDAATYYCLQSDNLPLTFGQGTKLEIKRTVAAPEIVLTQSPDFQSVTPKEKVTITCRASQDIGSELHWYQQKPDQPPKLLIKYASHSTSGVPSRFSGSGSGTDFTLTINGLEAEDAGTYYCHQTDSLPYTFGPGTKVDIKRTVAAPSVFIFPPSDEQLKSGTASVVCLLNNFYPREAKVQWKVDNALQSGNSQESVTEQDSKDSTYSLSSTLTLSKADYEKHKVYACEVTHQGLSSPVTKSFNRGEC
B2: DVD2436 (bispecific antibody, human IgG1)
heavy: EVQLQESGPGLVKPSETLSLTCTVSGFSLSDYGVSWIRQPPGKGLEWLGLIWGGGDTYYNSPLKSRLTISKDNSKSQVSLKLSSVTAADTAVYYCAKQRTLWGYDLYGMDYWGQGTLVTVSSASTKGPEVQLVQSGAEVKKPGSSVKVSCKASGGSFGGYGIGWVRQAPGQGLEWMGGITPFFGFADYAQKFQGRVTITADESTTTAYMELSGLTSDDTAVYYCARDPNEFWGGYYSTHDFDSWGQGTTVTVSS[human IgG1 constant region left out]
light: DTVVTQSPAFLSVTPGEKVTITCITSTDIDVDMNWYQQKPDQPPKLLISQGNTLRPGVPSRFSSSGSGTDFTFTISSLEAEDAATYYCLQSDNLPLTFGQGTKLEIKRTVAAPSVFIFPPEIVLTQSPDFQSVTPKEKVTITCRASQDIGSELHWYQQKPDQPPKLLIKYASHSTSGVPSRFSGSGSGTDFTLTINGLEAEDAGTYYCHQTDSLPYTFGPGTKVDIKRTVAAPSVFIFPPSDEQLKSGTASVVCLLNNFYPREAKVQWKVDNALQSGNSQESVTEQDSKDSTYSLSSTLTLSKADYEKHKVYACEVTHQGLSSPVTKSFNRGEC
B3: DVD2437 (bispecific antibody, human IgG1)
heavy: EVQLQESGPGLVKPSETLSLTCTVSGFSLSDYGVSWIRQPPGKGLEWLGLIWGGGDTYYNSPLKSRLTISKDNSKSQVSLKLSSVTAADTAVYYCAKQRTLWGYDLYGMDYWGQGTLVTVSSASTKGPSVFPLAPEVQLVQSGAEVKKPGSSVKVSCKASGGSFGGYGIGWVRQAPGQGLEWMGGITPFFGFADYAQKFQGRVTITADESTTTAYMELSGLTSDDTAVYYCARDPNEFWGGYYSTHDFDSWGQGTTVTVSS[human IgG1 constant region left out]
light: DTVVTQSPAFLSVTPGEKVTITCITSTDIDVDMNWYQQKPDQPPKLLISQGNTLRPGVPSRFSSSGSGTDFTFTISSLEAEDAATYYCLQSDNLPLTFGQGTKLEIKRTVAAPEIVLTQSPDFQSVTPKEKVTITCRASQDIGSELHWYQQKPDQPPKLLIKYASHSTSGVPSRFSGSGSGTDFTLTINGLEAEDAGTYYCHQTDSLPYTFGPGTKVDIKRTVAAPSVFIFPPSDEQLKSGTASVVCLLNNFYPREAKVQWKVDNALQSGNSQESVTEQDSKDSTYSLSSTLTLSKADYEKHKVYACEVTHQGLSSPVTKSFNRGEC
B4: DVD2438 (bispecific antibody, human IgG1)
heavy: EVQLQESGPGLVKPSETLSLTCTVSGFSLSDYGVSWIRQPPGKGLEWLGLIWGGGDTYYNSPLKSRLTISKDNSKSQVSLKLSSVTAADTAVYYCAKQRTLWGYDLYGMDYWGQGTLVTVSSASTKGPSVFPLAPEVQLVQSGAEVKKPGSSVKVSCKASGGSFGGYGIGWVRQAPGQGLEWMGGITPFFGFADYAQKFQGRVTITADESTTTAYMELSGLTSDDTAVYYCARDPNEFWGGYYSTHDFDSWGQGTTVTVSS[human IgG1 constant region left out]
light: DTVVTQSPAFLSVTPGEKVTITCITSTDIDVDMNWYQQKPDQPPKLLISQGNTLRPGVPSRFSSSGSGTDFTFTISSLEAEDAATYYCLQSDNLPLTFGQGTKLEIKRTVAAPSVFIFPPEIVLTQSPDFQSVTPKEKVTITCRASQDIGSELHWYQQKPDQPPKLLIKYASHSTSGVPSRFSGSGSGTDFTLTINGLEAEDAGTYYCHQTDSLPYTFGPGTKVDIKRTVAAPSVFIFPPSDEQLKSGTASVVCLLNNFYPREAKVQWKVDNALQSGNSQESVTEQDSKDSTYSLSSTLTLSKADYEKHKVYACEVTHQGLSSPVTKSFNRGEC
B5: DVD2439 (bispecific antibody, human IgG1)
heavy: EVQLVESGGGLVQPGGSLRLSCAVSGFTLSDYGVSWIRQAPGKGLEWLGLIWGGGDTYYNSPLKSRLTISKDNSKSTVYLQMNSLRAEDTAVYYCAKQRTLWGYDLYGMDYWGQGTLVTVSSASTKGPEVQLVQSGAEVKKPGSSVKVSCKASGGSFGGYGIGWVRQAPGQGLEWMGGITPFFGFADYAQKFQGRVTITADESTTTAYMELSGLTSDDTAVYYCARDPNEFWGGYYSTHDFDSWGQGTTVTVSS[human IgG1 constant region left out]
light: ETTVTQSPSSLSASVGDRVTITCITSTDIDVDMNWYQQKPGKPPKLLISQGNTLRPGVPSRFSSSGSGTDFTFTISSLQPEDFATYYCLQSDNLPLTFGQGTKLEIKRTVAAPEIVLTQSPDFQSVTPKEKVTITCRASQDIGSELHWYQQKPDQPPKLLIKYASHSTSGVPSRFSGSGSGTDFTLTINGLEAEDAGTYYCHQTDSLPYTFGPGTKVDIKRTVAAPSVFIFPPSDEQLKSGTASVVCLLNNFYPREAKVQWKVDNALQSGNSQESVTEQDSKDSTYSLSSTLTLSKADYEKHKVYACEVTHQGLSSPVTKSFNRGEC
B6: DVD2440 (bispecific antibody, human IgG1)
heavy: EVQLVESGGGLVQPGGSLRLSCAVSGFTLSDYGVSWIRQAPGKGLEWLGLIWGGGDTYYNSPLKSRLTISKDNSKSTVYLQMNSLRAEDTAVYYCAKQRTLWGYDLYGMDYWGQGTLVTVSSASTKGPEVQLVQSGAEVKKPGSSVKVSCKASGGSFGGYGIGWVRQAPGQGLEWMGGITPFFGFADYAQKFQGRVTITADESTTTAYMELSGLTSDDTAVYYCARDPNEFWGGYYSTHDFDSWGQGTTVTVSS[human IgG1 constant region left out]
light: ETTVTQSPSSLSASVGDRVTITCITSTDIDVDMNWYQQKPGKPPKLLISQGNTLRPGVPSRFSSSGSGTDFTFTISSLQPEDFATYYCLQSDNLPLTFGQGTKLEIKRTVAAPSVFIFPPEIVLTQSPDFQSVTPKEKVTITCRASQDIGSELHWYQQKPDQPPKLLIKYASHSTSGVPSRFSGSGSGTDFTLTINGLEAEDAGTYYCHQTDSLPYTFGPGTKVDIKRTVAAPSVFIFPPSDEQLKSGTASVVCLLNNFYPREAKVQWKVDNALQSGNSQESVTEQDSKDSTYSLSSTLTLSKADYEKHKVYACEVTHQGLSSPVTKSFNRGEC
B7: DVD2441 (bispecific antibody, human IgG1)
heavy: EVQLVESGGGLVQPGGSLRLSCAVSGFTLSDYGVSWIRQAPGKGLEWLGLIWGGGDTYYNSPLKSRLTISKDNSKSTVYLQMNSLRAEDTAVYYCAKQRTLWGYDLYGMDYWGQGTLVTVSSASTKGPSVFPLAPEVQLVQSGAEVKKPGSSVKVSCKASGGSFGGYGIGWVRQAPGQGLEWMGGITPFFGFADYAQKFQGRVTITADESTTTAYMELSGLTSDDTAVYYCARDPNEFWGGYYSTHDFDSWGQGTTVTVSS[human IgG1 constant region left out]
light: ETTVTQSPSSLSASVGDRVTITCITSTDIDVDMNWYQQKPGKPPKLLISQGNTLRPGVPSRFSSSGSGTDFTFTISSLQPEDFATYYCLQSDNLPLTFGQGTKLEIKRTVAAPEIVLTQSPDFQSVTPKEKVTITCRASQDIGSELHWYQQKPDQPPKLLIKYASHSTSGVPSRFSGSGSGTDFTLTINGLEAEDAGTYYCHQTDSLPYTFGPGTKVDIKRTVAAPSVFIFPPSDEQLKSGTASVVCLLNNFYPREAKVQWKVDNALQSGNSQESVTEQDSKDSTYSLSSTLTLSKADYEKHKVYACEVTHQGLSSPVTKSFNRGEC
B8: DVD2442 (bispecific antibody, human IgG1)
heavy: EVQLVESGGGLVQPGGSLRLSCAVSGFTLSDYGVSWIRQAPGKGLEWLGLIWGGGDTYYNSPLKSRLTISKDNSKSTVYLQMNSLRAEDTAVYYCAKQRTLWGYDLYGMDYWGQGTLVTVSSASTKGPSVFPLAPEVQLVQSGAEVKKPGSSVKVSCKASGGSFGGYGIGWVRQAPGQGLEWMGGITPFFGFADYAQKFQGRVTITADESTTTAYMELSGLTSDDTAVYYCARDPNEFWGGYYSTHDFDSWGQGTTVTVSS[human IgG1 constant region left out]
light: ETTVTQSPSSLSASVGDRVTITCITSTDIDVDMNWYQQKPGKPPKLLISQGNTLRPGVPSRFSSSGSGTDFTFTISSLQPEDFATYYCLQSDNLPLTFGQGTKLEIKRTVAAPSVFIFPPEIVLTQSPDFQSVTPKEKVTITCRASQDIGSELHWYQQKPDQPPKLLIKYASHSTSGVPSRFSGSGSGTDFTLTINGLEAEDAGTYYCHQTDSLPYTFGPGTKVDIKRTVAAPSVFIFPPSDEQLKSGTASVVCLLNNFYPREAKVQWKVDNALQSGNSQESVTEQDSKDSTYSLSSTLTLSKADYEKHKVYACEVTHQGLSSPVTKSFNRGEC

How the values were obtained:
Recombinant Human IL-1b = Recombinant Human IL-1b (human, UniProt P01584 117-269); assay: cell-based or functional assay
Recombinant Human IL-17 = target: T1, Recombinant Human IL-17; assay: cell-based or functional assay

Sequence of UniProt P01584 (P01584 117-269 limits assumed): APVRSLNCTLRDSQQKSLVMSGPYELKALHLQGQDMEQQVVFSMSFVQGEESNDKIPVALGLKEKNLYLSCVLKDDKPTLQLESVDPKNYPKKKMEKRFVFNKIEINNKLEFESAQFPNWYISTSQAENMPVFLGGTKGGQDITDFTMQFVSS

Row | Binder | N-Terminal VD IL-1β Neutralization Assay (IC50 nM) (Recombinant Human IL-1b) [nM] | C-Terminal VD IL17 Neutralization Assay (IC50 nM) (Recombinant Human IL-17) [nM]
1 | B1 | 0.273 | 0.863
2 | B2 | 0.191 | 0.042
3 | B3 | 0.22 | 0.12
4 | B4 | 0.182 | 0.032
5 | B5 | 0.115 | 0.549
6 | B6 | 0.222 | 0.055
7 | B7 | 0.16 | 0.087
8 | B8 | 0.215 | 0.043

Source: patent publication US20140271458A1 (AbbVie / Abbott, published 2014)
